Assay results: PubChem BioAssay (NCATS)
The shares of active, inactive and inconclusive entries below differ from those in the screen. Where a call stands in place of a potency, no number is given. For some assays here: Potencies beside an inconclusive call are fits to weak or partial responses and may not hold up. Active and inactive are the calls of the source. Unless noted, calls follow the shape of the dose curve; as a rule, active = well fitted curve in the direction sought with a large enough effect; inconclusive = small, poorly fitted or top-dose-only effect, or another doubt; inactive = no such curve, though single readings can be large; an effect the other way counts as inactive or inconclusive.

Legend:
[1] = P-glycoprotein substrates identified in KB-8-5-11 adenocarcinoma cell line, qHTS therapeutic library screen (AID 1346987); details: activity change, negative = cytotoxicity: at 44.5 µM (top of the series); also: nearly all actives have a fitted effect of over 65% in size
How it was run: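 KB-8-5-11, a colchicine-selected P-gp-overexpressing KB-3-1 subline, was grown without colchicine for the assay. Cells were seeded at 500 cells/well, dosed in concentration-response and incubated 72 h at 37 degree C, 5% CO2. Viability was read by CellTiter-Glo luminescence.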

[2] = tested on: Zika virus NS2B-NS3 protease (unlinked complex); assay: Primary screen GU Rhodamine qHTS for Zika virus inhibitors: Unlinked NS2B-NS3 protease assay (AID 1347159); details: Recombinant ZIKV NS2B-NS3 protease, Rhodamine110 substrate fluorescence; series mostly up to 107 µM; also: potency is read from the fitted curve at half-maximal effect; nearly all actives have a fitted effect of over 60% in size
How it was run: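 Noncovalent NS2B hydrophilic domain/NS3 protease complex (25 nM final) in 10 mM Tris-HCl pH 8.0, 0.01% Tween 20, preincubated 15 min with compounds (up to 114 microM), then 1.5 microM Rhodamine110 substrate. Fluorescence change over 15 min fitted to 4-parameter Hill.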

[3] = target: Luciferin 4-monooxygenase (Photinus pyralis) (UniProt P08659); assay: Primary firefly luciferase (FLuc) qHTS assay for identification of artifact compounds. (AID 1845220); also: nearly all actives have a fitted effect of over 60% in size
How it was run: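 Compounds sat 15 min at room temperature with 10 uM luciferin and 10 uM ATP (pH 7.6 Tris acetate). Firefly luciferase (10 nM final) was then added, and luminescence was read 5 min later. Data normalized to no-enzyme and DMSO controls were Hill-fitted.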

[4] = Primary fluorescence-based thiol-reactive (MSTI) qHTS assay for identification of artifact compounds. (AID 1845221); also: potency is read from the fitted curve at half-maximal effect;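 also: thiol-reactive compounds lower the probe fluorescence signal; nearly all actives have a fitted effect of over 65% in size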
How it was run: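 MSTI probe at 4 uM final in 2% DMSO/PBS pH 7.4; compounds, 1 h at room temperature in dark. Fluorescence Ex/Em 525/598 nm, normalised to Acetyl-MSTI and MSTI, fitted to 4-parameter Hill.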

[5] = tested on: Tov-21-G; assay: Primary qHTS to identify gynecologic anti-cancer compounds using libraries of approved drugs and bioactive compounds (AID 1345084); details: Gynecologic cancer cell panel viability, ATPlite luminescence, 48 h; series mostly up to 57.5 µM; also: nearly all actives have a fitted effect of over 55% in size
How it was run: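 Cells, 1,000 per well, plated 16 h, then exposed 48 h at 37 C to compounds. Viability by ATPlite luminescence after 15 min at room temperature.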

[6] = target: Cytochrome P450 2D6 (Homo sapiens) (UniProt P10635); assay: Cytochrome P450 family 2 subfamily D member 6 (CYP2D6) small molecule antagonists: luciferase biochemical (cell-free) qHTS assay (AID 1645840; active = well fitted curve in the direction sought with a large enough effect in the repeat runs; inconclusive = weak or mixed curves; inactive = no such curve, though single readings can be large; an effect the other way counts as inactive or inconclusive; also: potency is read from the fitted curve at half-maximal effect; nearly all actives have a fitted effect of over 55% in size)
How it was run: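 P450-Glo luminescent screen: recombinant CYP2D6 enzyme–proluciferin substrate mix preincubated with compound 10 min at room temperature, then NADPH regeneration added for 1 h at room temperature. Detection reagent added for 20 min; luciferin light read as relative luminescence units.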

[7] = tested on: Zika virus NS2B-NS3 protease (linked construct); assay: Primary screen NINDS Rhodamine qHTS for Zika virus inhibitors (AID 1347160); also: potency is read from the fitted curve at half-maximal effect; nearly all actives have a fitted effect of over 55% in size
How it was run: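 Purified NS2B-NS3 protease with the NS2B hydrophilic domain joined by a flexible linker (25 nM) in 10 mM Tris-HCl pH 8.0, 0.01% Tween 20, preincubated 15 min at RT with compound; Rhodamine110 peptide substrate 1.5 µM; fluorescence change over 15 min; 4-parameter Hill fit.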

[8] = Primary qHTS for inhibitors of nuclear receptor binding SET domain protein 2 (NSD2) in an isogenic RCH-ACV NSD2 p.E1099K mutant (9B) (AID 1645876); details: activity change, negative = viability loss: at 44.9 µM (top of the series) unless noted; also: nearly all actives have a fitted effect of over 70% in size
[9] = Primary redox qHTS assay for identification of artifact compounds. (AID 1845223)
How it was run: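 Amplex Red (25 uM) and HRP (250 mU/mL) in HBSS, with compounds for 15 min, then 250 uM DTT for 30 min, room temperature, dark. Fluorescence 525/598 nm read; normalized to DMSO and 10 uM DA3003; Hill fit.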
Tags tell the direction and shape of the fitted curve.

Sequence of UniProt P10635 (P10635 whole entry, looked up): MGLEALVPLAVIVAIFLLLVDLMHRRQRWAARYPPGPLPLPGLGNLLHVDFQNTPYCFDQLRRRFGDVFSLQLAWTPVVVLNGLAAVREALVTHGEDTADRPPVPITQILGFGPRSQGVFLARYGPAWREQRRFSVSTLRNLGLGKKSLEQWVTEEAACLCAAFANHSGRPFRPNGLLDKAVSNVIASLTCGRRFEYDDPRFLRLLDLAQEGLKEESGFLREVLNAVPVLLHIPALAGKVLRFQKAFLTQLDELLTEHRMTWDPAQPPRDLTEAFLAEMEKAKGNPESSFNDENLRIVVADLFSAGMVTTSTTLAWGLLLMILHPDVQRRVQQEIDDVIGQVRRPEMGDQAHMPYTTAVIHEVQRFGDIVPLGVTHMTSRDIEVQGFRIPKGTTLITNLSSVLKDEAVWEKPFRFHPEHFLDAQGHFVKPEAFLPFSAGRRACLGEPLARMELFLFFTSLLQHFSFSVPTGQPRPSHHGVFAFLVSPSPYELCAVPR

Row | SMILES | Potency [1] | Potency [2] | Potency [3] | Potency [4] | Potency [5] | Potency [6] | Potency [7] | Potency [8] | Potency [9]
1 | C=C1[C@@H]2[C@H]3OC(=O)C(=C)[C@@H]3CC[C@@](C)(O)[C@@H]2C[C@@H]1O[C@@H]1O[C@H](CO)[C@@H](O)[C@H](O)[C@H]1O | inactive | inconclusive: 35.5 µM [inhibitor, partial curve, poor fit] | inactive | inconclusive: 5.82 µM [inhibitor, partial curve] | inactive | – | – | – | –
2 | CC(C)Oc1ccc(-c2nc(-c3cccc4c3CCC4NCCC(=O)O)no2)cc1C#N (centres undefined) | – | inconclusive: 35.5 µM [inhibitor, partial curve] | – | – | inactive | inconclusive: 26.8 µM [inhibitor, single point] | – | – | –
3 | COC(=O)C1(C)CCCC2(C)c3ccc(C(C)C)cc3C(O)C(O)C12 (centres undefined) | – | inconclusive: 17.8 µM [inhibitor, partial curve, poor fit] | – | inactive | inactive | – | inconclusive: 10 µM [inhibitor, partial curve] | inactive | inactive
